# Reference: the supplement of paper PMC10037445
# Values joined by “and” are separate entries in the source; they are usually repeats but may differ in a detail not shown here. Identical values can stand only once. Over roughly 2,900 compounds, “IRF Lucia reporter activity, fold change vs agonist alone” has its median near 0.9; the highest 2% begin near 2.8. Some of the results follow.
# Experiments:
# RAW-Dual [1] = assay: IRF Lucia reporter activity, fold change vs agonist alone; cytotoxicity flag (confluency mask): not cytotoxic; higher = enhanced IRF activity
# Procedure, shortened: (§1)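 Cytotoxic wells were those whose IncuCyte confluency was below 70% of agonist controls in both mask sets. The cells were RAW-Dual macrophages at 50,000 cells/well in DMEM on 384-well plates, dosed with 50 nL of library stock by pin tool, stimulated with a PRR agonist 1 h later, and kept at 37 °C, 5% CO2 for 20 hours. IRF and NF-κB reporter activity, as fold change over agonist-alone wells, came from supernatant read by QuantiLuc luminescence and QuantiBlue absorbance, respectively.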
# RAW-Dual [2] = assay: IRF Lucia reporter activity, fold change vs agonist alone; higher = enhanced IRF activity; details: agonist: MPLA (TLR4) […]
# Procedure, shortened: as §1
# RAW-Dual [3] = assay: IRF Lucia reporter activity, fold change vs agonist alone; cytotoxicity flag (confluency mask): cytotoxic (confluency <70% of control); higher = enhanced IRF activity
# Procedure, shortened: as §1
# [4] = agonist: 3'3'-cGAMP (STING) 10 ug/mL
# [5] = library stock concentration (final ~1000-fold dilution): 10 mM, cytotoxicity flag (confluency mask): not cytotoxic
smiles,measurement,setting,value
COc1cc2c(cc1OC)-c1cc3ccc(OC)c(OC)c3c[n+]1CC2 (library stock concentration (final ~1000-fold dilution): 10 mM),IRF Lucia reporter activity,RAW-Dual [1]; [4],1.11 and 1.04
same,IRF Lucia reporter activity,RAW-Dual [1]; agonist: LPS (TLR4) 0.1 ug/mL,0.76 and 0.898
Cc1ccc(S(=O)(=O)O)cc1.NC(=O)c1cccc2cn(-c3ccc(C4CCCNC4)cc3)nc12 (stereo not given) (library stock concentration (final ~1000-fold dilution): 10 mM),IRF Lucia reporter activity,RAW-Dual [1]; [4],0.336
same,IRF Lucia reporter activity,RAW-Dual [1]; agonist: LPS (TLR4) 0.1 ug/mL,0.527
C=CCc1ccc(O)c(-c2ccc(O)c(CC=C)c2)c1 (library stock concentration (final ~1000-fold dilution): 10 mM),IRF Lucia reporter activity,RAW-Dual [1]; [4],1.05
same,IRF Lucia reporter activity,RAW-Dual [1]; agonist: LPS (TLR4) 0.1 ug/mL,0.767
C=CCc1ccc(O)c(-c2ccc(O)c(CC=C)c2)c1,IRF Lucia reporter activity,RAW-Dual [2]; [5],1.09
CNC(=C[N+](=O)[O-])NCCSCc1ccc(CN(C)C)o1 (library stock concentration (final ~1000-fold dilution): 10 mM),IRF Lucia reporter activity,RAW-Dual [1]; [4],1.08 and 1.07
same,IRF Lucia reporter activity,RAW-Dual [1]; agonist: LPS (TLR4) 0.1 ug/mL,0.905 and 0.934
N#CCC(C1CCCC1)n1cc(-c2ncnc3[nH]ccc23)cn1 (stereo not given) (library stock concentration (final ~1000-fold dilution): 10 mM),IRF Lucia reporter activity,RAW-Dual [1]; [4],0.309 and 0.171 and 0.299
CCOC(=O)/C=C/c1ccc(O)c(OC)c1 (library stock concentration (final ~1000-fold dilution): 10 mM),IRF Lucia reporter activity,RAW-Dual [1]; [4],0.301
same,IRF Lucia reporter activity,RAW-Dual [1]; agonist: LPS (TLR4) 0.1 ug/mL,0.829
Cc1[nH]c(/C=C2\C(=O)Nc3ccc(S(=O)(=O)Cc4c(Cl)cccc4Cl)cc32)c(C)c1C(=O)N1CCCC1CN1CCCC1 (stereo not given),IRF Lucia reporter activity,"RAW-Dual [2]; library stock concentration (final ~1000-fold dilution): 10 mM, cytotoxicity flag (confluency mask): cytotoxic (confluency <70% of control)",0.316
Cc1[nH]c(/C=C2\C(=O)Nc3ccc(S(=O)(=O)Cc4c(Cl)cccc4Cl)cc32)c(C)c1C(=O)N1CCCC1CN1CCCC1 (stereo not given) (library stock concentration (final ~1000-fold dilution): 10 mM),IRF Lucia reporter activity,RAW-Dual [3]; [4],0.138
same,IRF Lucia reporter activity,RAW-Dual [3]; agonist: LPS (TLR4) 0.1 ug/mL,0.23
Cc1cc(-c2nc(-c3ccc(OC(F)(F)F)cc3)no2)nn1Cc1ccnc(N2CCN(C3CC3)CC2)c1,IRF Lucia reporter activity,RAW-Dual [2]; [5],1.43
Cc1cc(-c2nc(-c3ccc(OC(F)(F)F)cc3)no2)nn1Cc1ccnc(N2CCN(C3CC3)CC2)c1 (library stock concentration (final ~1000-fold dilution): 10 mM),IRF Lucia reporter activity,RAW-Dual [1]; [4],1.27
same,IRF Lucia reporter activity,RAW-Dual [1]; agonist: LPS (TLR4) 0.1 ug/mL,1.04
CC(=O)C1CCC2C3CCC4=CC(=O)CCC4(C)C3CCC12C (stereo not given) (library stock concentration (final ~1000-fold dilution): 10 mM),IRF Lucia reporter activity,RAW-Dual [1]; [4],1.06
same,IRF Lucia reporter activity,RAW-Dual [1]; agonist: LPS (TLR4) 0.1 ug/mL,0.453
CC(=O)C1CCC2C3CCC4=CC(=O)CCC4(C)C3CCC12C (stereo not given),IRF Lucia reporter activity,RAW-Dual [2]; [5],1.03
Cl.Cl.N/C(=N\OCC(O)CN1CCCCC1)c1cccnc1 (stereo not given) (library stock concentration (final ~1000-fold dilution): 10 mM),IRF Lucia reporter activity,RAW-Dual [1]; [4],0.993
same,IRF Lucia reporter activity,RAW-Dual [1]; agonist: LPS (TLR4) 0.1 ug/mL,0.959
C=C1CC[C@@H]2[C@](C)(CO)[C@H](O)CC[C@@]2(C)[C@@H]1/C=C/C1=CCOC1=O (library stock concentration (final ~1000-fold dilution): 10 mM),IRF Lucia reporter activity,RAW-Dual [1]; [4],1.19
same,IRF Lucia reporter activity,RAW-Dual [1]; agonist: LPS (TLR4) 0.1 ug/mL,1.09
O=C(O)P(=O)(O)O (library stock concentration (final ~1000-fold dilution): 10 mM water),IRF Lucia reporter activity,RAW-Dual [1]; [4],1.28
same,IRF Lucia reporter activity,RAW-Dual [1]; agonist: LPS (TLR4) 0.1 ug/mL,0.88
O=C(O)P(=O)(O)O,IRF Lucia reporter activity,"RAW-Dual [2]; library stock concentration (final ~1000-fold dilution): 10 mM water, cytotoxicity flag (confluency mask): not cytotoxic",1.35
CC(C)(C)NS(=O)(=O)c1cncc(-c2cc(F)c3nc(N)nn3c2)c1,IRF Lucia reporter activity,RAW-Dual [2]; [5],1.21
CC(C)(C)NS(=O)(=O)c1cncc(-c2cc(F)c3nc(N)nn3c2)c1 (library stock concentration (final ~1000-fold dilution): 10 mM),IRF Lucia reporter activity,RAW-Dual [1]; [4],0.838
same,IRF Lucia reporter activity,RAW-Dual [1]; agonist: LPS (TLR4) 0.1 ug/mL,1.18
O=C1c2c(O)cc(O)cc2OC(c2cc(O)c(O)c(O)c2)C1O (stereo not given) (library stock concentration (final ~1000-fold dilution): 10 mM),IRF Lucia reporter activity,RAW-Dual [1]; [4],0.997
same,IRF Lucia reporter activity,RAW-Dual [1]; agonist: LPS (TLR4) 0.1 ug/mL,0.976
O=C1c2c(O)cc(O)cc2OC(c2cc(O)c(O)c(O)c2)C1O (stereo not given),IRF Lucia reporter activity,RAW-Dual [2]; [5],1.02
COc1cc(OC)cc(N(CCNC(C)C)c2ccc3ncc(-c4cnn(C)c4)nc3c2)c1 (library stock concentration (final ~1000-fold dilution): 10 mM),IRF Lucia reporter activity,RAW-Dual [3]; [4],0.661
same,IRF Lucia reporter activity,RAW-Dual [3]; agonist: LPS (TLR4) 0.1 ug/mL,1.6
Cc1[nH]c(/C=C2\C(=O)Nc3ccccc32)c(C)c1CCC(=O)O,IRF Lucia reporter activity,RAW-Dual [2]; [5],0.51
Cc1[nH]c(/C=C2\C(=O)Nc3ccccc32)c(C)c1CCC(=O)O (library stock concentration (final ~1000-fold dilution): 10 mM),IRF Lucia reporter activity,RAW-Dual [1]; [4],0.752
same,IRF Lucia reporter activity,RAW-Dual [1]; agonist: LPS (TLR4) 0.1 ug/mL,0.475
CC(=O)N1CCN(c2ccc(OCC3COC(Cn4ccnc4)(c4ccc(Cl)cc4Cl)O3)cc2)CC1 (stereo not given),IRF Lucia reporter activity,"RAW-Dual [2]; library stock concentration (final ~1000-fold dilution): 2 mM, cytotoxicity flag (confluency mask): not cytotoxic",1.28
CC(=O)N1CCN(c2ccc(OCC3COC(Cn4ccnc4)(c4ccc(Cl)cc4Cl)O3)cc2)CC1 (stereo not given) (library stock concentration (final ~1000-fold dilution): 2 mM),IRF Lucia reporter activity,RAW-Dual [1]; [4],1.1
same,IRF Lucia reporter activity,RAW-Dual [1]; agonist: LPS (TLR4) 0.1 ug/mL,0.93
CN(C)CCC=C1c2ccccc2CCc2ccccc21.Cl,IRF Lucia reporter activity,RAW-Dual [2]; [5],1.45
CN(C)CCC=C1c2ccccc2CCc2ccccc21.Cl (library stock concentration (final ~1000-fold dilution): 10 mM),IRF Lucia reporter activity,RAW-Dual [1]; [4],0.546
same,IRF Lucia reporter activity,RAW-Dual [1]; agonist: LPS (TLR4) 0.1 ug/mL,1.27
